In a collection of fitness landscapes (doi:10.1016/j.celrep.2020.107928):
The full ranking holds about 81,000 sequences; the median of “one-hybrid fitness for binding NBS DNA” is about -0.1, and the highest 2% start at about 0.36. Some of the results follow.

B1: Caulobacter ParB omega fusion; a variant is named by its letters at X, in order, B8GW30 (parent)
chain: MESVVVGEPGMSEGRRGLGRGLSALLGEVDAAPAQAPGEQLGGSREAPIEILQRNPDQPRRTFREEDLEDLSNSIREKGVLQPILVRPSPDTAGEYQIVAGERAWRAAQRAGLKTVPIMVRELDDLAVLEIGIIENVQRADLNVLEEALSYKVLMEKFERTQENIAQTIGKSXSHVANXMRLLXLPDEVQSYLVSGELTAXHARAIAAAADPVALAKQIIEGGLSVRETEALARKAPNLSAGKSKGGRPPRVKDTDTQALESDLSSVLGLDVSIDHRGSTGTLTITYATLEQLDDLCNRLTRGI

Variants of: B1
Experiment: one-hybrid fitness for binding NBS DNA (the Noc-binding site; scaled: cognate 1, non-cognate 0); higher = stronger binding
Conditions: with NBS DNA site
In short: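 Fitness here means the log change in variant-to-wild-type read ratio between plasmids sequenced before and after selection. That scale was set so cognate equals 1 and non-cognate equals 0. The selection was a bacterial one-hybrid screen of Caulobacter ParB libraries, four specificity codons randomised, in E. coli USO carrying a HIS3 reporter with the site 19 bp from the promoter, grown 48 hours at 37°C on M9-minus-histidine with 0.1 mM IPTG and 5 mM 3-AT.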

Variant | one-hybrid fitness for binding NBS DNA
HLSG | ≤ 0.2
LAKT | ≤ 0.2
YETG | ≤ 0.2
RYHQ | ≤ 0.2
QEHF | ≤ 0.2
TRVQ | ≤ 0.2
FGRL | ≤ 0.2
CCPS | ≤ 0.2
RHVN | ≤ 0.2
MTTA | ≤ 0.2
PDTD | ≤ 0.2
YSEY | ≤ 0.2
KPFA | ≤ 0.2
RQGI | ≤ 0.2
GWLM | ≤ 0.2
DVLS | ≤ 0.2
CCYR | ≤ 0.2
QDHM | ≤ 0.2
RVLG | ≤ 0.2
PKAT | ≤ 0.2
YRLP | ≤ 0.2

Variant | one-hybrid fitness for binding NBS DNA
RPPL | ≤ 0.2
YPAC | ≤ 0.2
IRGF | ≤ 0.2
RMWC | ≤ 0.2
NFHG | ≤ 0.2
HFAS | ≤ 0.2
TMLN | ≤ 0.2
SCHF | ≤ 0.2
KPVT | ≤ 0.2
PNMK | ≤ 0.2
WRHL | ≤ 0.2
SLFV | ≤ 0.2
YSAT | ≤ 0.2
PKNY | ≤ 0.2
CLSC | ≤ 0.2
HSEC | ≤ 0.2
GTSM | ≤ 0.2
VMCS | ≤ 0.2
GRRK | ≤ 0.2
TALE | ≤ 0.2
TPRI | ≤ 0.2

Variant | one-hybrid fitness for binding NBS DNA
FDSL | ≤ 0.2
ITEG | ≤ 0.2
HNRG | ≤ 0.2
HRMM | ≤ 0.2
RAFQ | ≤ 0.2
GSPS | ≤ 0.2
PCNG | ≤ 0.2
SRRS | ≤ 0.2
WFLP | ≤ 0.2
PFSS | ≤ 0.2
SLGG | ≤ 0.2
RIAK | ≤ 0.2
HRNA | ≤ 0.2
ARRP | ≤ 0.2
NKYC | ≤ 0.2
WTQC | ≤ 0.2
TPRS | ≤ 0.2
TPQR | ≤ 0.2
GYVR | ≤ 0.2
QEKA | ≤ 0.2
LKRS | ≤ 0.2

Variant | one-hybrid fitness for binding NBS DNA
RVFG | ≤ 0.2
LATT | ≤ 0.2
RPCS | ≤ 0.2
RNCQ | ≤ 0.2
HGMN | ≤ 0.2
GCPR | ≤ 0.2
TNES | ≤ 0.2
SPTN | ≤ 0.2
VVMR | ≤ 0.2
YAQA | ≤ 0.2
QRKC | 0.507
TYNQ | ≤ 0.2
VYRL | ≤ 0.2
QNTW | ≤ 0.2
KVWG | ≤ 0.2
MHLM | ≤ 0.2
KNIR | ≤ 0.2
HLAS | ≤ 0.2
IIHM | ≤ 0.2
STEV | ≤ 0.2
FTIG | ≤ 0.2
